SMILES strings stand for the structures. Screen size: about 340,000 compounds; about 6,900 (2%) were called active. Rule as the data show it: active = inhibition above about 30%; inactive = below that, where a call was filed. The list shows a part of the results, in another mix than the full data. Entries without a call were filed so in the source.

UniProt P14416, sequence (P14416 whole entry, looked up): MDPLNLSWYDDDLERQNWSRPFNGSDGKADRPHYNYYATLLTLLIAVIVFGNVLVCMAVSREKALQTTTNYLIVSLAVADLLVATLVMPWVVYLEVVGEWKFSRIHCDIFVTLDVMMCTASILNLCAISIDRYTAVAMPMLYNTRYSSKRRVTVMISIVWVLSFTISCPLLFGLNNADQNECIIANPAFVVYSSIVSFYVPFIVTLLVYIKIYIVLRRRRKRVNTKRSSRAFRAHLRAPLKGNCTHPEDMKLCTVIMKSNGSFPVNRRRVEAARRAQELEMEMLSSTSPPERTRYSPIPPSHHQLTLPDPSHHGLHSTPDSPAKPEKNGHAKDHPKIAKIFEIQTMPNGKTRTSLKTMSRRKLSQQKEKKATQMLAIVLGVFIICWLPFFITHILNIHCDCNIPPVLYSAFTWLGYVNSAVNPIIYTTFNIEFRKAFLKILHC

The target of this assay is D(2) dopamine receptor (Homo sapiens) (UniProt P14416). Put plainly: HTS Assay for Allosteric Antagonists of the Human D2 Dopamine Receptor: Primary Screen for Antagonists. Also: 0% is about no effect. Conditions: HEK293 TREx D2 cells, calcium flux, dopamine EC80; at 10 µM; stronger effect = higher value. The method in brief:
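Overnight-induced (tetracycline, 30 C) HEK293 T-REx cells carrying force-coupled D2 receive a no-wash calcium dye, then compound, then EC80 dopamine at 180 s; signals are read kinetically throughout.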
A general note: A change in cytosolic calcium serves as a functional read-out for many receptors and channels.
What is called inhibition is the relative decrease from the control value, in per cent. With `Cc1ccc(CNc2nc(-c3ccco3)nn2C(=O)c2ccccc2[N+](=O)[O-])cc1`, the inhibition was determined as 5.39%.

`CCS(=O)(=O)Nc1ccc2[nH]c(=O)[nH]c2c1`: the inhibition was active: 32.8%.

With `COc1ccccc1N1CCN(c2nc3c(S(=O)(=O)c4ccccc4)nnn3c3ccc(Cl)cc23)CC1`, the inhibition stood at 1.9%.

As to `CCOC(=O)c1scc(-c2ccccc2)c1S(=O)(=O)Nc1ccccc1OC`, the inhibition was determined as 12.4%.

For `N#Cc1nc(-c2ccc(COc3ccc(Cl)cc3)o2)oc1N1CCCCC1`, the inhibition worked out at 1.21%.

Regarding `COc1ccc(CNS(=O)(=O)c2ccc(C(=O)N(C)C)s2)cc1`, the inhibition was -7.4%.

On to `O=C1c2[nH]nc(-c3ccccc3O)c2C(c2cccc(OCc3ccccc3)c2)N1CCCO` (configuration not stated), for which the inhibition was -6.94%.

As to `Fc1ccc(N2CCN(Cc3nnc(-c4ccccc4Cl)o3)CC2)cc1`, the inhibition was -16.2%.

Take `COc1ccc(Cn2c(SCc3ccc(C(=O)NC4CCCCC4)cc3)nc3ccncc32)cc1`: the inhibition worked out at 2.93%.

Take `CCc1cccc(C)c1Nc1c(-c2ccc(F)cc2)nc2sccn12`: the inhibition is -15.8%.

Consider `CCOC(=O)c1sc2ccccc2c1S(=O)(=O)Nc1cc(OC)ccc1OC`, for which the inhibition came out at 1.6%.

`COc1ccc(CNCc2c(C(=O)O)c(C)n(Cc3ccccc3C)c2C)cc1OC`: the inhibition was -3.8%.

As to `Cc1ccc(C)c(N2CCN(S(=O)(=O)c3ccc4[nH]c5c(c4c3)CCCC5)CC2)c1`, the inhibition came to 14.5%.

Turning to `COc1ccc(N2CCN(c3ncccc3-c3nc(-c4ccccc4C)no3)CC2)cc1`, the inhibition was determined as 16%.

With `CCOc1ccc(C2C(=O)N(C3CCCCC3)CC(=O)N2Cc2ccc(F)cc2)cc1OC` (configuration not stated), the inhibition is 23.1%.

Turning to `CCc1ccc(C(c2ccccc2)c2c(C)[nH]c3ccccc23)s1` (configuration not stated), the inhibition was 5.35%.

With `Cc1cc(C)c(NC(=O)CSc2nc3ccccc3c3nc(-c4ccccc4)nn23)c(C)c1`, the inhibition was -27.3%.

Regarding `Cc1cccc(CNC(=O)c2ccc3c(c2)N(C)CCS3)c1`, the inhibition was -1.78%.

Consider `COc1cccc(-c2ccc(-c3noc(-c4ccccc4F)n3)c(OC)n2)c1`, for which the inhibition is active: 39.8%.

Consider `COc1ccc(NC(=O)Cn2c(=O)n(CCCC(=O)NCc3ccccc3Cl)c(=O)c3ccccc32)c(OC)c1`, for which the inhibition was found to be 24.4%.

Consider `CNC(=O)NC(=O)CN1C(=O)NC2(CCOc3ccccc32)C1=O` (configuration not stated), for which the inhibition is active: 31.2%.

Consider `Cc1ccccc1C(=O)Nc1cccc(NC(=O)c2ccc(C(C)(C)C)cc2)c1`, for which the inhibition came to 0.498%.

As for `CCc1ccc(NC(=O)CSc2ccc(-c3sc(-c4ccccc4)nc3C)nn2)cc1`, the inhibition is -1.53%.

Turning to `Cc1ccc(SCC(=O)OCC(=O)N(CCC#N)c2ccccc2)cc1`, the inhibition was active: 33.2%.

Take `CCN(Cc1ccccc1)c1nc2c(S(=O)(=O)c3ccccc3)nnn2c2ccc(Cl)cc12`: the inhibition is -15.2%.

As to `Cc1nn(C(C)C(=O)NCCc2ccccc2)c(=O)c2c1sc1ccccc12` (configuration not stated), the inhibition came to 24.4%.

Take `COc1c2c(cc3oc(=O)ccc13)OC(C)(C)C=C2`: the inhibition was active: 33.4%.

For `CCOC(=O)CSc1nc2sc3c(c2c(=O)n1Cc1ccccc1)CC(C(C)C)OC3` (configuration not stated), the inhibition worked out at 0.514%.

With `CCC(C)NC(=O)CCCn1c(=O)c2cccn2c2ccccc21` (configuration not stated), the inhibition was -9.96%.

As to `Cc1cc2oc(C(=O)Nc3ccc(S(=O)(=O)Nc4nccs4)cc3)cc(=O)c2cc1Cl`, the inhibition was active: 33.8%.

In the case of `COc1ccc(C2C(=O)N(C3CCCCCC3)CC(=O)N2CCc2ccc(Cl)cc2)cc1OC` (configuration not stated), the inhibition was 9.87%.

For `NC(=O)c1c(NC(=O)Cc2ccccc2)sc2c1CCN(Cc1ccccc1)C2`, the inhibition was active: 47.4%.

`CCC(C(=O)NC1CCCCC1)n1c(SCc2ccccc2F)nc2ccncc21` (configuration not stated): the inhibition was -19.7%.

On to `COCCNC(=O)CN1C(=O)COc2ccc(S(=O)(=O)N3CCCCCC3)cc21`, for which the inhibition was -0.734%.

As for `O=C(COc1ccccc1)N(Cc1cccnc1)c1nc2c(F)cc(F)cc2s1`, the inhibition was -14.8%.

`Cc1sc(C2C(C#N)=C(N)N(c3ccc(Cl)cc3)C3=C2C(=O)CCC3)cc1CN1CCOCC1` (configuration not stated): the inhibition was -1.68%.

For `CC1CCN(S(=O)(=O)c2ccc3c(c2)N(CC(=O)NCCCOC(C)C)C(=O)CO3)CC1`, the inhibition was found to be 20.7%.

`COCCNC(=O)Cn1c(-c2cccs2)cc2cc(Cl)ccc21`: the inhibition came out at 28.4%.

For the compound `Cc1ccsc1CN(C(=O)COc1ccccc1Cl)C1CCS(=O)(=O)C1` (configuration not stated), the inhibition was -3.81%.

In the case of `Cc1ccccc1CNC(=O)CN1C(=O)CCCc2ccccc21`, the inhibition is -6.33%.

Turning to `COc1ccc(CCNC(=O)CCCn2c(=O)c3ccccc3n(CC(=O)Nc3ccccc3C)c2=O)cc1OC`, the inhibition is -1.88%.

For the compound `O=C(CN1CCN(Cc2ccc(F)cc2)C1=O)NCc1ccc(F)cc1`, the inhibition worked out at 3.85%.

`COc1ccc(Cn2c(SCC(=O)N3CCN(c4ccc(F)cc4)CC3)nc3ccccc32)cc1`: the inhibition is -3.92%.

Regarding `Cc1ccc2scc(N3CCCCC3C)c(=O)c2c1` (configuration not stated), the inhibition amounted to 18.6%.

On to `Cc1ccc(NC2(c3ccccc3)C(=O)c3ccccc3C2=O)cc1F`, for which the inhibition came to 23.8%.

For `COCCCNC(=O)c1c(NC(=O)Cc2coc3cc(C)ccc23)sc2c1CCCC2`, the inhibition was -1.32%.

For the compound `O=[N+]([O-])c1cc(-c2nc(-c3ccccc3)no2)ccc1NCc1ccco1`, the inhibition was found to be 14.2%.

Turning to `Cc1ccccc1CN1C(=O)c2ccccc2S(=O)c2ccc(C(=O)N3CCOCC3)cc21` (configuration not stated), the inhibition is 17.7%.

Consider `Cc1ccc(C(=O)c2oc3ccccc3c2NC(=O)COc2ccccc2C)cc1`, for which the inhibition came out at 0.195%.

On to `Cn1c(=O)c2cc(C(=O)NCCCN3CCN(c4ccc(F)cc4)CC3)sc2c2ccccc21`, for which the inhibition was 22.9%.

On to `CC1CCN(C(=O)Cn2cc(SCC(=O)NCc3ccc(F)cc3)c3ccccc32)CC1`, for which the inhibition turned out to be 10.4%.

Regarding `CCCCc1ccc(C(=O)c2c(N)c(C(=O)Nc3cccc(OC)c3)c3ccccn23)cc1`, the inhibition is -4.54%.

As for `O=C(NCCCN1CCC(Cc2ccccc2)CC1)c1ccc2nc(N3CCOCC3)sc2c1`, the inhibition was active: 48%.

With `Cc1nnc(N2C(=O)c3oc4ccccc4c(=O)c3C2c2cccc(OCCC(C)C)c2)s1` (configuration not stated), the inhibition came out at 16.6%.

Turning to `CC(=O)c1ccc(Oc2ncnc3c2oc2ccccc23)cc1`, the inhibition came out at 7.31%.

`O=C(NCCC(=O)N(Cc1ccco1)Cc1cccs1)c1ccc(Br)cc1`: the inhibition was active: 41.3%.

Take `COc1ccc(NC(=O)CCS(=O)(=O)c2cc3c4c(c2)CCN4C(=O)CC3)c(OC)c1`: the inhibition is -12.4%.

Regarding `COc1ccc(C(=O)c2c(N)c(C(=O)Nc3ccccc3Cl)c3ccccn23)cc1`, the inhibition is -4.64%.

`O=C(COc1ccc2oc3c(c2c1)CCCC3)Nc1cccc(Br)c1`: the inhibition is -8.96%.

As for `CCc1ccc(NC(=O)CCc2c(C)nn(-c3ccc(N4CCCC4)nn3)c2C)cc1`, the inhibition was found to be 7.85%.

With `COc1ccc(-c2nc3ccccc3o2)cc1NC(=O)COc1cc(C)cc(C)c1`, the inhibition is 5.11%.

With `Cc1oc2c(c1C(=O)Nc1ccc(OC(F)(F)F)cc1)C1=NCCN1C=N2`, the inhibition came to 11.9%.

The values above are taken from PubChem BioAssay AID485344 (National Center for Advancing Translational Sciences (NCATS), 2010).
